Reference: the supplement of paper PMC3334620
In all, about 33,000 sequences were measured (“E-score (-0.5 to 0.5)”: median about -0.012, highest 2% from about 0.29 on). The list shows a part of the results.

target: T1, Ybr033w (UniProt P38073); experiment: PBM E-score (8-mer binding enrichment) (E-score (-0.5 to 0.5)); higher = stronger / more preferred TF binding; most listed sequences are background and not binding sites; conditions: protein concentration: 200 nM; construct: GST-full length
T1 sequence: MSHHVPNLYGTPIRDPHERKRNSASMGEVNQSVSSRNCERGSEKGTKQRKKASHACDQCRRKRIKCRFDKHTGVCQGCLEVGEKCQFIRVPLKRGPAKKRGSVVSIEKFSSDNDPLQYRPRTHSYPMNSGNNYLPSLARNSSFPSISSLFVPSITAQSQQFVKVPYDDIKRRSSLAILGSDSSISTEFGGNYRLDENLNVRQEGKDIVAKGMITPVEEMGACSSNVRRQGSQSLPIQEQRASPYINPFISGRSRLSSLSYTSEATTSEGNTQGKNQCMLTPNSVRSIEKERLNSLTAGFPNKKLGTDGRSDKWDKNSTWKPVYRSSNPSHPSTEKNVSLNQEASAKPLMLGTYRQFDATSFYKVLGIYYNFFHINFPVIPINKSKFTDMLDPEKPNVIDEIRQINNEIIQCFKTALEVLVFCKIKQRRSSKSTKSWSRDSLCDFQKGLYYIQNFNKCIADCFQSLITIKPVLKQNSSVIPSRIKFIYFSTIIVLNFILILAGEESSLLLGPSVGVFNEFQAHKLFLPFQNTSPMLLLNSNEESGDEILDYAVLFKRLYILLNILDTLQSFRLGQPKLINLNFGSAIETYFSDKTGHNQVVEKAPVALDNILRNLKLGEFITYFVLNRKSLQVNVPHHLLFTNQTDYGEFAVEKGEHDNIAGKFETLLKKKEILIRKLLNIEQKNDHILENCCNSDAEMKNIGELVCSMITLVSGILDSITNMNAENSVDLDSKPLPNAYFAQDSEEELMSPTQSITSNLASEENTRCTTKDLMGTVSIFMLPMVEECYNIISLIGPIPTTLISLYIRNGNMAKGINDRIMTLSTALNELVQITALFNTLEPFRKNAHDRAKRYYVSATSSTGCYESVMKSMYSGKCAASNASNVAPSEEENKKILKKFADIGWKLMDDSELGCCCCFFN
Outline: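 Masliner-normalised scans of fluorescent anti-GST signal were the basis for scoring. That signal came from GST-tagged yeast transcription factors applied at about 100-200 nM to double-stranded universal all-10-mer Agilent arrays on fresh or once-stripped slides. Each ungapped eight-base word, pooled with its reverse complement, received an E-score from the Universal PBM Analysis Suite.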

Row | Sequence | PBM E-score
1 | GAGGGGTA | -0.17
2 | GCTCATGA | 0.0368
3 | CATTAGAC | -0.0978
4 | GGGTTTAC | 0.118
5 | TATAAATA | 0.289
6 | ATACCTAA | 0.316
7 | ATACGCCG | -0.149
8 | AGCGAGTA | -0.0264
9 | GGATGGCC | -0.431
10 | AGTGCCAA | -0.0839
11 | ACTGGCAC | -0.075
12 | GATCTCAA | 0.0631
13 | CTGAGACC | -0.291
14 | AAACTAGC | 0.0348
15 | GGATAAAC | 0.456
16 | AACCTGCA | -0.016
17 | AACGGGCG | -0.222
18 | AATACATA | 0.0798
19 | GGTTACAA | 0.194
20 | AAAGCACA | 0.0531
21 | AAGAAATC | 0.146
22 | CGCAGGTC | -0.168
23 | CCCCGTGA | -0.173
24 | GAGAATAA | 0.252
25 | ACAGCCAT | 0.0803

Row | Sequence | PBM E-score
26 | AATGGGGG | -0.342
27 | AGTTCGAT | -0.00142
28 | AACTCCGT | 0.116
29 | AAGAAAGC | -0.134
30 | TATCCTCA | 0.0552
31 | AGGCAACT | 0.174
32 | AACGAAAT | 0.126
33 | AAGGGACC | -0.0405
34 | ACGGTAAG | -0.0649
35 | GCGGGTAC | -0.087
36 | ACAACACA | -0.067
37 | CAACCGAA | 0.0309
38 | AGAATGGC | 0.0186
39 | TCATCGCA | -0.084
40 | ACTAGCCC | -0.131
41 | AGGGAGTG | -0.202
42 | AGCACGTG | -0.0372
43 | AATAGTGA | 0.167
44 | AGAGGCAG | -0.166
45 | CCTCATAG | -0.00917
46 | AACTGTAT | 0.188
47 | GCTAGTAC | 0.0569
48 | CCAGGAAG | -0.00416
49 | CGGCTACC | -0.128
50 | AATGCGTC | -0.203

Row | Sequence | PBM E-score
51 | CAGAGATA | 0.169
52 | GTTCCTTA | -0.00501
53 | ACGGGAAG | -0.123
54 | CAGAGTAA | -0.0159
55 | AGAGCCTC | -0.278
56 | CTGGCTCC | -0.142
57 | CTGAACCC | -0.024
58 | CCAACGAA | -0.0234
59 | GAAGTTCC | -0.0574
60 | GTACTCCA | -0.0187
61 | GAATTCTA | 0.176
62 | AAGTAACC | 0.0992
63 | GCGACAAC | 0.0118
64 | ATGCGTCA | -0.127
65 | GCCTAATA | -0.0893
66 | CCTCATTC | -0.0147
67 | TAGACCGA | -0.0248
68 | CTATAAAA | 0.112
69 | ATCGTATG | 0.0892
70 | CCGGCGGC | -0.288
71 | CCACAAGA | 0.0969
72 | CACGACAC | 0.0137
73 | AGACACAC | -0.239
74 | GGATAAAA | 0.397
75 | ATAGCATG | -0.128

Row | Sequence | PBM E-score
76 | ATGTTGTC | -0.106
77 | CGAACCCC | -0.23
78 | AGGTGCGC | -0.0903
79 | AGGGGCAC | -0.288
80 | GTCCGAAC | -0.194
81 | CGCGTATA | -0.0208
82 | CCGTGGAC | -0.262
83 | CACAAACG | 0.0842
84 | AGTTCAGG | -0.0606
85 | CGGGATAA | 0.251
86 | AGTGGACA | 0.0894
87 | CCTTTGGC | -0.181
88 | ATCTAGCG | -0.132
89 | CACCTCCG | -0.0269
90 | CGAATTTC | 0.237
91 | CACTAGAA | 0.106
92 | AACAACTA | 0.147
93 | TCCAGCGA | 0.0135
94 | GCAACTAC | 0.0891
95 | CGAGGAGC | -0.135
96 | TAGAACAA | 0.119
97 | GTTACCGA | -0.156
98 | CTCTATGC | -0.0283
99 | CACGACTA | -0.0847
100 | GCTAGCCA | -0.132

Row | Sequence | PBM E-score
101 | CACGGGCC | -0.35
102 | CGTTGGTC | -0.103
103 | CCTTTCGC | 0.00472
104 | ACTCCTAT | 0.101
105 | CACCGTAG | -0.231
106 | CGGGTACA | -0.179
107 | CGCCCGCG | -0.131
108 | CAAGTCGC | -0.159
109 | CCATCTCA | -0.0651
110 | ACCTTCAA | 0.0246
111 | ACGAGCAC | -0.159
112 | AGAAATTG | 0.281
113 | GGCCTATA | -0.198
114 | CCATCGCA | -0.117
115 | CTACTCTC | -0.122
116 | ATACGCTC | 0.0886
117 | AGTGCGGC | -0.034
118 | AATTTTAG | -0.00018
119 | ATAGCCCC | -0.34
120 | GCCAAGCA | -0.0454
121 | CAGATCAA | -0.1
122 | CCATCAAA | 0.134
123 | GTATCATA | 0.21
124 | CTGGACTC | -0.0664
125 | AAGCCTTC | -0.214

Row | Sequence | PBM E-score
126 | CGGTGAAG | -0.19
127 | ACGTCAGA | -0.144
128 | CCTTCCCA | -0.094
129 | AGTGGGAT | 0.0917
130 | AAGACCCA | -0.318
131 | GCACACGC | -0.0899
132 | AAATAACA | 0.11
133 | CTAATACA | 0.129
134 | GATACGGC | -0.173
135 | TAATCTAA | 0.236
136 | CCAGAAGC | -0.0153
137 | ACATTACT | 0.173
138 | GAGTAATA | 0.334
139 | AGACTCTC | -0.00792
140 | CCATTAAC | 0.163
141 | TCGTGGAA | 0.23
142 | CGAGATTA | 0.182
143 | AAGAAGCC | 0.134
144 | CTTCACAC | 0.154
145 | ATAGTAGG | 0.0146
146 | AGGTTCAA | 0.209
147 | CTGTGCGC | -0.0301
148 | TACCTAAA | 0.185
149 | GGGCGGAC | -0.276
150 | ATAACTGA | 0.123

Row | Sequence | PBM E-score
151 | TGGCACAA | -0.0455
152 | GTTGAAAC | 0.0194
153 | CATCTGCG | -0.0635
154 | CGTTTTGA | 0.0382
155 | AGTTGAAA | 0.129
156 | CCAGTGGA | -0.101
157 | CCGACAAG | -0.00476
158 | ATATGTGA | 0.152
159 | CCCTCTCC | -0.391
160 | CTCCGGGA | -0.00229
161 | AGATGCGA | -0.0333
162 | CCAAGAGA | -0.00974
163 | ACCTCGGA | 0.0486
164 | AAGCGAGA | -0.0861
165 | GACCCGGC | -0.149
166 | GCGGCACA | -0.2
167 | GGTTCGGA | -0.196
168 | CACGTTGA | 0.068
169 | TCTACAGA | 0.0158
170 | ATTTAACC | 0.21
171 | GTTTAGCA | 0.0173
172 | ATGAGCGA | 0.0554
